Experimental data taken from the supplement of paper PMC11876631.
± gives the standard deviation of the averaged measurements. Laboratory Escherichia coli strains with one amino-acid change in an essential protein, pooled on minimal glucose agar with carbenicillin or gentamicin at twice the control MIC (plus kanamycin and chloramphenicol for the plasmids), 48 h. Fold change of barcode share against drug-free plates; higher = less susceptible. Active = above 20 in both replicates (the paper's putatively resistant). '<' = one read or none on drug, '>' = one read or none on a drug-free plate. Shares are relative, so most strains fall below 1 when a few take over. Listed are strains with at least 15 reads on both drug-free plates, and hits; most hits rest on fewer reference reads. Replicate rank correlation about 0.5. Edits are read from barcodes.

Target: Escherichia coli (laboratory strain)
Assay: barcode share on antibiotic plates over drug-free plates; higher = less susceptible
Description: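 A pool of E. coli strains, each edited to carry one amino-acid change in an essential protein, was grown for 48 h on minimal glucose agar with or without antibiotic; strain barcodes were sequenced; mean of two replicates.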

[1] = antibiotic: carbenicillin, 2× MIC (3.1 µg/mL)
[2] = antibiotic: gentamicin, 2× MIC (MIC 0.45 µg/mL)

Row | Protein | fold change of barcode share [1] | fold change of barcode share [2]
1 | argH L339P (protein) MALWGGRFTQAADQRFKQFNDSLRFDYRLAEQDIVGSVAWSKALVTVGVLTAEEQAQLEEALNVLLEDVRARPQQILESDAEDIHSWVEGKLIDKVGQLGKKLHTGRSRNDQVATDLKLWCKDTVSELLTANRQLQSALVETAQNNQDAVMPGYTHLQRAQPVTFAHWCLAYVEMLARDESRLQDALKRLDVSPLGCGALAGTAYEIDREQLAGWLGFASATRNSLDSVSDRDHVLELLSAAAIGMVHLSRFAEDLIFFNTGEAGFVELSDRVTSGSSLMPQKKNPDALELIRGKCGRVQGALTGMMMTLKGLPLAYNKDMQEDKEGLFDALDTWLDCPHMAALVLDGIQVKRPRCQEAAQQGYANATELADYLVAKGVPFREAHHIVGEAVVEAIRQGKPLEDLPLSELQKFSQVIDEDVYPILSLQSCLDKRAAKGGVSPQQVAQAIAFAQARLG | 0.385 ± 0.032 | 0.0488 ± 0.051
2 | hisS V132Q (protein) MAKNIQAIRGMNDYLPGETAIWQRIEGTLKNVLGSYGYSEIRLPIVEQTPLFKRAIGEVTDVVEKEMYTFEDRNGDSLTLRPEGTAGCVRAGIEHGLLYNQEQRLWYIGPMFRHERPQKGRYRQFHQLGCEQFGLQGPDIDAELIMLTARWWRALGISEHVTLELNSIGSLEARANYRDALVAFLEQHKEKLDEDCKRRMYTNPLRVLDSKNPEVQALLNDAPALGDYLDEESREHFAGLCKLLESAGIAYTVNQRLVRGLDYYNRTVFEWVTNSLGSQGTVCAGGRYDGLVEQLGGRATPAVGFAMGLERLVLLVQAVNPEFKADPVVDIYLVASGADTQSAAMALAERLRDELPGVKLMTNHGGGNFKKQFARADKWGARVAVVLGESEVANGTAVVKDLRSGEQTAVAQDSVAAHLRTLLG | 0.204 ± 0.089 | 0.00738 ± 0.00041
3 | hisS V132D (protein) MAKNIQAIRGMNDYLPGETAIWQRIEGTLKNVLGSYGYSEIRLPIVEQTPLFKRAIGEVTDVVEKEMYTFEDRNGDSLTLRPEGTAGCVRAGIEHGLLYNQEQRLWYIGPMFRHERPQKGRYRQFHQLGCEDFGLQGPDIDAELIMLTARWWRALGISEHVTLELNSIGSLEARANYRDALVAFLEQHKEKLDEDCKRRMYTNPLRVLDSKNPEVQALLNDAPALGDYLDEESREHFAGLCKLLESAGIAYTVNQRLVRGLDYYNRTVFEWVTNSLGSQGTVCAGGRYDGLVEQLGGRATPAVGFAMGLERLVLLVQAVNPEFKADPVVDIYLVASGADTQSAAMALAERLRDELPGVKLMTNHGGGNFKKQFARADKWGARVAVVLGESEVANGTAVVKDLRSGEQTAVAQDSVAAHLRTLLG | 0.233 ± 0.011 | < 0.00248
4 | hisS V316Q (protein) MAKNIQAIRGMNDYLPGETAIWQRIEGTLKNVLGSYGYSEIRLPIVEQTPLFKRAIGEVTDVVEKEMYTFEDRNGDSLTLRPEGTAGCVRAGIEHGLLYNQEQRLWYIGPMFRHERPQKGRYRQFHQLGCEVFGLQGPDIDAELIMLTARWWRALGISEHVTLELNSIGSLEARANYRDALVAFLEQHKEKLDEDCKRRMYTNPLRVLDSKNPEVQALLNDAPALGDYLDEESREHFAGLCKLLESAGIAYTVNQRLVRGLDYYNRTVFEWVTNSLGSQGTVCAGGRYDGLVEQLGGRATPAVGFAMGLERLVLLQQAVNPEFKADPVVDIYLVASGADTQSAAMALAERLRDELPGVKLMTNHGGGNFKKQFARADKWGARVAVVLGESEVANGTAVVKDLRSGEQTAVAQDSVAAHLRTLLG | 0.222 ± 0.02 | < 0.00674
5 | hisS V316W (protein) MAKNIQAIRGMNDYLPGETAIWQRIEGTLKNVLGSYGYSEIRLPIVEQTPLFKRAIGEVTDVVEKEMYTFEDRNGDSLTLRPEGTAGCVRAGIEHGLLYNQEQRLWYIGPMFRHERPQKGRYRQFHQLGCEVFGLQGPDIDAELIMLTARWWRALGISEHVTLELNSIGSLEARANYRDALVAFLEQHKEKLDEDCKRRMYTNPLRVLDSKNPEVQALLNDAPALGDYLDEESREHFAGLCKLLESAGIAYTVNQRLVRGLDYYNRTVFEWVTNSLGSQGTVCAGGRYDGLVEQLGGRATPAVGFAMGLERLVLLWQAVNPEFKADPVVDIYLVASGADTQSAAMALAERLRDELPGVKLMTNHGGGNFKKQFARADKWGARVAVVLGESEVANGTAVVKDLRSGEQTAVAQDSVAAHLRTLLG | 0.202 ± 0.071 | < 0.00788
6 | hisS V316A (protein) MAKNIQAIRGMNDYLPGETAIWQRIEGTLKNVLGSYGYSEIRLPIVEQTPLFKRAIGEVTDVVEKEMYTFEDRNGDSLTLRPEGTAGCVRAGIEHGLLYNQEQRLWYIGPMFRHERPQKGRYRQFHQLGCEVFGLQGPDIDAELIMLTARWWRALGISEHVTLELNSIGSLEARANYRDALVAFLEQHKEKLDEDCKRRMYTNPLRVLDSKNPEVQALLNDAPALGDYLDEESREHFAGLCKLLESAGIAYTVNQRLVRGLDYYNRTVFEWVTNSLGSQGTVCAGGRYDGLVEQLGGRATPAVGFAMGLERLVLLAQAVNPEFKADPVVDIYLVASGADTQSAAMALAERLRDELPGVKLMTNHGGGNFKKQFARADKWGARVAVVLGESEVANGTAVVKDLRSGEQTAVAQDSVAAHLRTLLG | 0.293 ± 0.19 | 0.00732 ± 0.0058
